From patent US20230338565A1 (SICHUAN KELUN BIOTECH BIOPHARMACEUTICAL, published 2023)

B1: 2C6.9-TL001 (DAR: 7.12) (other)
heavy: QVQLQESGPGLVKPSETLSLTCTVSGFSLTRYGVSWIRQPPGKGLEWIGVIWGEGNTNYNPSLKSRVTISKDSSKSQVSLKLSSVTAADTAVYYCARVNFGNALDYWGQGTLVTVSS[human IgG1 constant region not spelt out]
light: DIVMTQSPDSLAVSLGERATINCKSSQSLLNSGNQKNYLTWYQQKPGQPPKLLIYWASTRDSGVPDRFSGSGSGTDFTLTISSLQAEDVAVYYCQNDFIFPLTFGGGTKVEIKRTVAAPSVFIFPPSDEQLKSGTASVVCLLNNFYPREAKVQWKVDNALQSGNSQESVTEQDSKDSTYSLSSTLTLSKADYEKHKVYACEVTHQGLSSPVTKSFNRGEC
modifications: TL001 linker-toxin on antibody sulfhydryl groups (thioether bond), 0 to 1 per light chain; overall DAR 7.12; TL001 linker-toxin on antibody sulfhydryl groups (thioether bond), 0 to 4 per heavy chain; overall DAR 7.12
notes: also called 2C6.9-ADC
B2: 2C6.9-TL002 (other)
heavy: B1 heavy
light: B1 light
modifications: TL002 linker-toxin on antibody sulfhydryl groups (thioether bond); overall DAR 6.95
B3: 2C6.9-TL003 (other)
heavy: B1 heavy
light: B1 light
modifications: TL003 linker-toxin on antibody sulfhydryl groups (thioether bond); overall DAR 7.03
B4: 2C6.9-TL001 (DAR: 3.79) (other)
heavy: B1 heavy
light: B1 light
modifications: TL001 linker-toxin on antibody sulfhydryl groups (thioether bond), 0 to 1 per light chain; overall DAR 3.79; TL001 linker-toxin on antibody sulfhydryl groups (thioether bond), 0 to 4 per heavy chain; overall DAR 3.79

Experiments:
human Claudin18.2 [1] = target: T1, human Claudin18.2 (human, UniProt P56856-2 1-261); experiment: cell-based or functional assay
human Claudin18.2 [2] = target: T1, human Claudin18.2; experiment: cell ELISA on formaldehyde-fixed L929-Claudin 18.2 cells, HRP anti-human IgG

Row | Binder | EC50 of killing NUGC-4 cells (CCK8) (human Claudin18.2 [1]) | EC50 (human Claudin18.2 [2])
1 | B1 | 2.38 µg/mL | 0.0399 µg/mL
2 | B2 | 54.9 µg/mL | –
3 | B3 | 124 µg/mL | –
4 | B4 | 10 µg/mL | –
